Measurements: PubChem BioAssay AID1963576 (National Center for Advancing Translational Sciences (NCATS), 2024)
Hit rate of the full screen: of about 46,000 compounds, about 60 (0.1%) were called active. Not shown: some 3% with an inconclusive outcome. Calls follow the shape of the dose curve; as a rule, active = well fitted inhibition curve with a large enough effect; inconclusive = small, poorly fitted or top-dose-only effect; inactive = no such curve, though single readings can be large or run the other way. The list shows a part of the results.

Assay: Primary qHTS assay for Inhibitors of ovarian cancer metastasis using an organotypic tumor microenvironment (TME) model. Also: nearly all actives have a fitted effect of over 65% in size.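 As to activity change, negative = inhibition: plate controls were DMSO wells for no effect and tomatine positive control wells for full effect.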
Conditions: SKOV3ip1-GFP adhesion/invasion on 3D omental model, fluorescence; series mostly up to 45.8 µM; activity change, negative = inhibition: at the top concentration
Outline: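 A 3D layer of primary human omental fibroblasts, mesothelial cells, fibronectin and collagen I, grown 48 hr, received SKOV3ip1-GFP cells in serum-free medium plus compounds at 0.36-46 umol/L. After 2 hr RT and 16 hr 37 C, fixed adherent GFP cells were counted; normalized to DMSO and tomatine.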

Activity change, negative = inhibition, inactive:
NC(=O)c1ccc(-c2nc(-c3ccc4c(c3)OCO4)c(-c3ccccn3)[nH]2)cc1 -16.9%
CC(NC(=O)CCCN1C(=O)CCn2nc(-c3cn(C)c4ccccc34)cc21)c1ccccc1 (centres undefined) 1.97%
COc1cccc(-c2ccc3c(N)c(C(=O)c4ccc(F)cc4)sc3n2)c1 29.4%
CCC(Oc1ccccc1)C(=O)N1CCN(Cc2cc(=O)n3nc(-c4cccc(C)c4)sc3n2)CC1 (centres undefined) 4.14%
Cc1cc(N2CCN(C)CC2)nc2ccc(NC(=O)Nc3ccc(F)cc3F)cc12 2.46%
Fc1ccc(-c2nc3c4c(-c5ccccc5)c(-c5ccccc5)oc4ncn3n2)cc1 -5.97%
Cc1ccc(CSC2=Nc3ccccc3C3=NC(CCC(=O)NCc4cccs4)C(=O)N23)c(C)c1 (centres undefined) -10.5%
COc1ccc(Nc2ccc3cc(S(=O)(=O)N4CCCC4)ccc3n2)cc1OC -4.52%
O=C(Nc1ccc(Cl)c(-c2nc3ccccc3o2)c1)c1cccc2c(Cl)cccc12 8.56%
Cc1ccc(NC(=O)CSc2nncn3c2cc2sccc23)cc1F -35%
Cc1ccc(NS(=O)(=O)c2c(C)nc3sccn3c2=O)c(Cl)c1 -1.62%
Cc1ccc(-n2c(=O)c3c(c4cc(C)ccc4n3C)n(CC(=O)NCC3CCCO3)c2=O)cc1 (centres undefined) 5.17%
Cc1cccc(NC(=O)CCn2nc(C)c3c(C)n(-c4ccccc4)nc3c2=O)c1C -0.872%
Cc1nn(-c2ccc(N3CCCC3)nn2)c(C)c1CCC(=O)Nc1ccccc1 -3%
CC(C)c1ccc(NC(=O)c2cc(S(=O)(=O)N3CCc4ccccc4C3)ccc2F)cc1 -13.2%
Cc1ccc(NC(=O)CCS(=O)(=O)c2ccc3nc(C)sc3c2)c(C)c1 10.8%
COc1ccc(S(=O)(=O)NCc2ccc3c(c2)CCN3C(C)=O)cc1OC 1.77%
CN(C)c1ncc(C(=O)NCc2ccccc2Cl)cn1 5.25%
CCOc1ccc(C(=O)Nc2ccc(NC(=O)c3ccccc3)cc2)cc1Br 7.45%
Cc1ccc(S(=O)(=O)N2CCCc3cc(NS(=O)(=O)c4ccccc4)ccc32)cc1 -22.7%
Cc1ccc(OCC(=O)N(Cc2nc(-c3ccccc3)no2)C(C)C)cc1C -2.57%
COC(=O)c1ccc([C@H]2Nc3ccc(S(=O)(=O)Nc4ccc(F)cc4)cc3[C@H]3C=CC[C@H]32)cc1 13.6%
COc1ccccc1N1CCN(c2c(CN3CCCC3)c(=O)oc3ccccc23)CC1 -2.24%
COc1ccccc1-c1noc(CSc2nnc(-c3ccccc3)n2-c2ccc(C)c(C)c2)n1 -7.72%
Cc1cc(OCC(=O)Nc2sc3c(c2C#N)CCC(C)C3)ccc1Cl (centres undefined) 1.03%
Cc1ccc2[nH]c(=O)c3cc(C(=O)NCc4cccc(Cl)c4)sc3c2c1 8.92%
CCOC(=O)CNC(=O)Nc1cc(C(=O)NCc2ccc(C(C)C)cc2)ccc1N1CCCC1 3.96%
O=C(C1CCCN(S(=O)(=O)c2cccc3nonc23)C1)N1CCN(c2cccc(C(F)(F)F)c2)CC1 (centres undefined) 46.8%
O=C(CSc1ncc(-c2ccc(Cl)cc2)[nH]1)Nc1ccccc1F 13.8%
CCOc1ccc(C(=O)c2cn(Cc3cccc(OC)c3)c3cc4c(cc3c2=O)OCO4)cc1 -3.19%
CCOC(=O)c1c(C)oc2nc(C)nc(N(C)Cc3ccccc3)c12 0.39%
CC(=O)c1ccc(NC(=O)CSc2nc(-c3ccccc3C)nc3c2c(=O)n(C)c(=O)n3C)cc1 1.6%
CON=C(C(=O)N[C@@H]1C(=O)N2C(C(=O)O)=C(Cn3ccc(=N)n3CCO)CS[C@H]12)c1csc(N)n1 -9.36%
O=c1cc(-c2ccccc2)n2c(SCc3ccccc3Cl)nnc2[nH]1 10.2%
COc1ccc(-n2c(=O)c3c4c(sc3n(C)c2=O)CN(C(C)=O)CC4)cc1 3.95%
CCOc1ccc(Nc2c(S(=O)(=O)c3ccc(C)cc3)cnc3ccc(F)cc23)cc1 -28.3%
COc1cccc(CNC(=O)c2nc(Cn3nc(C)c(Br)c3C)no2)c1 -13.6%
COc1ccccc1CNC(=O)C(=O)NCC(c1cccs1)S(=O)(=O)c1cccs1 (centres undefined) -6.56%
CCOc1ccc(NC(=O)c2cc(S(=O)(=O)N3CCN(c4ccccc4F)CC3)ccc2F)cc1 13.5%
Cc1ccc2[nH]c(=O)c3cc(C(=O)NC4CCC(C)CC4)sc3c2c1 (centres undefined) 4.18%
CCCCN(C)C(=O)CSc1nc2ccccc2nc1Cc1ccc(C)cc1 0.205%
Cc1c(Cl)cccc1NC(=O)CSc1nc(=O)n(Cc2ccco2)c2c1CCC2 8.29%
Cc1ccc(CCNC(=O)CN(c2ccc(C)cc2)S(=O)(=O)N(C)C)cc1 4%
CC(C)OCc1cc(CN2CCN(c3cccc(C(F)(F)F)c3)CC2)c(O)c2ncccc12 -4.61%
COc1cccc2c1cc1c(=O)n(CC(=O)NCc3ccco3)nc(C)n12 -5.45%
Cc1cccc(N(C)S(=O)(=O)c2cc3[nH]c(=O)c(=O)[nH]c3cc2C)c1 11.3%
CCSc1nnc2c(n1)OC(c1ccc(OC)c(OC)c1)N(C(C)=O)c1ccccc1-2 (centres undefined) -12%
CN(C)c1ccc(CNC(=O)C2CCN(Cc3cc4ccccc4n3Cc3ccccc3)CC2)cc1 -0.164%
CCCCC(=O)Nc1nnc(S(=O)(=O)N(C)Cc2ccccc2)s1 5.77%
CCCCCNC(=O)C1CCC(Cn2c(=O)c3sccc3n(CC(=O)NCc3cccc(OC)c3OC)c2=O)CC1 (centres undefined) 2.47%

outcome, inactive:
CCOC(=O)c1ccc(N2CCN(c3cc(Cl)ccc3C)CC2)c(NC(=O)Nc2ccc(OCC)cc2)c1
COc1cc(Cl)c(NC(=O)CC(C)S(=O)(=O)c2cc3c(cc2C)NC(=O)CO3)c(OC)c1 (centres undefined)
CCOc1ccc(CN2C(=O)c3ccccc3Sc3ccc(C(=O)NCCCN4CCOCC4)cc32)cc1
CCOC(=O)c1ccc(N2CCN(c3ccc(F)cc3)CC2)c(NC(=O)Nc2ccc(CC)cc2)c1
CCOc1ccc(S(=O)(=O)N(CC(=O)NCCc2ccc(OC)cc2)c2ccccc2)cc1
Cc1cc(C)c(/C=C/c2onc(C)c2S(=O)(=O)N2CCC(C(=O)Nc3cccc(C)c3C)CC2)c(C)c1
Cc1ccc(S(=O)(=O)N2CCCC2C(=O)Nc2ccc(Br)cc2)cc1 (centres undefined)
Cc1ccc2oc(C(=O)N(Cc3sccc3C)C3CCS(=O)(=O)C3)c(C)c2c1 (centres undefined)
COc1ccccc1C(=O)Nc1nnc2n1CCS2
